Results as given in PubChem BioAssay AID493208 (National Center for Advancing Translational Sciences (NCATS), 2011).
The campaign covered roughly 44,000 compounds. About 340 (0.77%) were called active. Roughly 5% stayed inconclusive and do not appear here. The call rests on the fitted dose curve; in most records, active means well fitted inhibition curve with a large enough effect; inconclusive means small, poorly fitted or top-dose-only effect; inactive means flat fitted curve, though single readings scatter. The list shows a part of the results.

Assay: Acumen qHTS Assay for Inhibitors of the mTORC1 Signaling Pathway in MEF (Tsc2-/-, p53-/-) Cells: Sytravon; further: nearly all actives have a fitted effect of over 50% in size;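 on activity change, negative = inhibition: plate controls were DMSO for no effect and rapamycin for full effect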
Details: phospho-rpS6 immunofluorescence/PI, 24 h; series mostly up to 38.3 µM; activity change, negative = inhibition: at the top concentration
Procedure, shortened: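 Readout is phospho-S6 Alexa 488 signal normalized to PI per well, reported as % active cells with thresholds set from rapamycin (7.5 nM) and DMSO controls. Cells: Tsc2-/-, p53-/- MEFs, 24 hrs compound at 37 C; PI cell number serves as viability.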
Potency means the concentration at half of the fitted maximal effect.

SMILES	activity change, negative = inhibition	Potency
Cn1c(=O)cc(SCC(=O)N2CCN(c3ccccc3F)CC2)c2ccc(Cl)cc21	inactive: 3%	–
Cc1ccccc1OCCSc1nc2ccc(NC(=O)c3cccs3)cc2s1	inactive: -6.15%	–
COCCCNC(=O)CSc1nc2cc3c(cc2c(=O)n1CCCC(=O)NCc1ccc2c(c1)OCO2)OCO3	inactive: 0.119%	–
CCn1nc(-c2ccccc2)c(-c2ccccc2)c(C(=O)Nc2ccc(NC(C)=O)cc2)c1=O	inactive: 6.36%	–
Cc1ccc(Cn2ccnc2SCC(=O)Nc2nnc(C)s2)cc1	inactive: -14.5%	–
COc1ccc(OC)c(NC(=O)Nc2c(C)n(C)n(-c3ccccc3)c2=O)c1	inactive: -0.662%	–
Cc1ccc(-c2csc(=Nc3ccccc3)n2Cc2ccc3c(c2)OCO3)cc1	inactive: -13.8%	–
O=C(NCCN1CCCCC1)c1ccc(Cn2c(SCc3ccccc3)nc3cccnc32)cc1	inactive: -6.22%	–
COCCCn1c(-c2ccc(S(=O)(=O)N3CCOCC3)cc2)csc1=Nc1ccccc1	inactive: -3.84%	–
CC1(c2ccc(Cl)cc2)CC(C)(C)N(C(=O)c2cccc(F)c2)c2ccccc21 (stereo unspecified)	inactive: -8.11%	–
O=C(Cc1ccccc1)Nc1sc2c(c1C(=O)Nc1ccc(Br)cc1)CCCC2	inactive: -12.7%	–
Cc1ccc(C(=O)NC2(C(F)(F)F)N=C(c3ccccc3)N(Cc3ccccc3)C2=O)cc1 (stereo unspecified)	inactive: 5.39%	–
Cc1ccc(C(=O)Oc2cc(-c3ccc4c(c3)OCO4)cc(=O)c3c(C)oc(C)c23)cc1	inactive: -3.21%	–
Cc1ccc(NC(=O)C2CCN(c3nc(-c4ccc(C(C)C)cc4)no3)CC2)c(Cl)c1	inactive: -0.192%	–
Cc1ccccc1NC(=O)CSc1nc(-c2ccco2)nc2cc(=O)[nH]n12	inactive: 3.15%	–
CC(=O)c1ccc(NS(=O)(=O)c2ccc(-n3cccn3)cc2)cc1	inactive: -2.09%	–
CCOc1ccc(CNC(=O)c2cc(-c3ccc(Cl)s3)nc3ccccc23)cc1	inactive: -15.3%	–
O=C(c1ccc2c(c1)N(Cc1ccc(Cl)cc1)C(=O)c1ccccc1S2=O)N1CCCCC1 (stereo unspecified)	inactive: -2.75%	–
COc1ccccc1NC(=O)Cn1c(=O)n(CC(=O)NCc2ccccc2Cl)c(=O)c2sccc21	inactive: -1.6%	–
COc1ccc(C(=O)Oc2c(Sc3ccc(C)cc3)c(C)nn2C(C)(C)C)cc1OC	inactive: 0%	–
Cc1cccc(NC(=O)CCNS(=O)(=O)c2ccc3c(c2)CCN3C(=O)C2CC2)c1	inactive: -3.69%	–

SMILES	activity change, negative = inhibition	Potency
CCOC(=O)C1CCN(C(c2ccc(C)cc2)c2c(O)cc(C)n(CCOC)c2=O)CC1 (stereo unspecified)	inactive: 4.04%	–
CCOc1ccc(-c2cc(CCCC(=O)NCCc3cc(OC)c(OC)c(OC)c3)no2)cc1	inactive: 0.999%	–
Cc1ccc(NC(=O)Cn2cc(C(=O)C3CCCCC3)c3ccccc32)cc1	inactive: -0.951%	–
COc1ccc(CCNC(=O)CCCn2nc(C)c3sc4ccccc4c3c2=O)c(OC)c1	inactive: -0.286%	–
CCOc1ccc(NC(=O)Cn2c(=O)n(CCCS(=O)(=O)C3CCCCC3)c(=O)c3ccccc32)cc1	inactive: -1.34%	–
Cc1ccc(C(=O)Nc2ccccc2)cc1S(=O)(=O)Nc1ccccc1	inactive: 1.27%	–
Cc1ccc(NC(=O)C2CCC(CNS(=O)(=O)c3cccc4nsnc34)CC2)c(Cl)c1 (stereo unspecified)	inactive: -5.75%	–
COc1ccc(N2CCN(C(=O)C3CCN(S(=O)(=O)c4cn(C)cn4)CC3)CC2)cc1	inactive: 0%	–
Cc1ccc(OC(=O)CSc2nnc(-c3ccc4c(c3)OCO4)o2)cc1	inactive: -0.319%	–
Cc1cccc(N(C)C(=O)Cc2c(C(=O)O)[nH]c3ccccc23)c1	inactive: 0%	–
Cc1ccc(-n2ncc3c(N4CCC(Cc5ccccc5)CC4)ncnc32)cc1C	inactive: 1.9%	–
CCOc1ccc(-c2nc(CSCC(=O)NCc3ccc(C)cc3)c(C)o2)cc1	inactive: -6.64%	–
COC(=O)c1cc(NC(=O)c2sc3ccccc3c2Cl)cc(C(=O)OC)c1	inactive: 8.63%	–
Cc1cccc(N2CCN(c3ncnc4c3nc3n4CCCCC3)CC2C)c1 (stereo unspecified)	–	active: 9.27 µM
COc1ccc(CCNc2nc3cc(OC)c(OC)cc3c3nc(-c4ccccc4)nn23)cc1OC	inactive: -8.28%	–
COC(=O)c1cc2occc2n1CC(=O)Nc1ccc(C)cc1Cl	inactive: -0.801%	–
COc1ccc(-c2nn(-c3ccc(C)cc3)c3c2cnc2ccc(C)cc23)cc1OC	inactive: -2.47%	–
Cc1ccc(C)c(-n2nnc(-c3nc(-c4ccccc4C)no3)c2C)c1	inactive: 5.23%	–
CCCN1CCN(CCCNC(=O)C(CC)n2nc(C)n3c(cc4occc43)c2=O)CC1 (stereo unspecified)	inactive: -0.0351%	–
Cc1coc2cc3oc(=O)c(CCC(=O)NCc4ccccc4Cl)c(C)c3cc12	inactive: 1.08%	–
O=C(NCC(c1cccnc1)N1CCN(Cc2ccccc2)CC1)C(=O)Nc1cccc(Cl)c1 (stereo unspecified)	inactive: 1.73%	–

SMILES	activity change, negative = inhibition	Potency
O=C(O)c1cccc(-n2cnc3cccnc32)c1	inactive: -0.253%	–
CCC(C(=O)NC1CCCCC1)n1c(SCc2cccc(C)c2)nc2ccncc21 (stereo unspecified)	inactive: -6.85%	–
Cn1c(C(=O)N2CCC(C(=O)NCCc3ccccc3)CC2)cc2sccc21	inactive: -1.71%	–
CCN(CC)CCNC(=O)c1cn(CC)c2ccc(S(=O)(=O)N(C)C3CCCCC3)cc2c1=O	inactive: -6.53%	–
COCc1c(Br)c(C)nc2sc3c(=O)n(-c4cccc(Br)c4)nnc3c12	inactive: 0.0534%	–
N#Cc1ccccc1CSc1nnc2ccc3ccccc3n12	inactive: -0.7%	–
CC(NC(=O)c1ccco1)c1nc(-c2ccccc2)no1 (stereo unspecified)	inactive: 0.356%	–
Cc1cc(=O)n(CC(=O)NC(C)c2ccccc2)c2c1c(C)nn2-c1cccc(F)c1 (stereo unspecified)	inactive: -5.77%	–
CCN1C(=O)c2ccccc2S(=O)(=O)c2ccc(C(=O)NCc3ccc(OC)cc3)cc21	inactive: 2.86%	–
CCc1ccccc1NC(=O)CSc1nnc(-c2ccccc2)c(-c2ccccc2)n1	inactive: 3.88%	–
O=C(CN(c1ccc(Cl)c(C(F)(F)F)c1)S(=O)(=O)c1ccccc1)Nc1cccnc1	inactive: 2%	–
COc1cc(OC)cc(-c2cc3nc(C)c(CCC(=O)Nc4ccccc4OC)c(C)n3n2)c1	inactive: -0.351%	–
COCCNC(=O)Cn1c(=O)c2cccn2c2ccc(F)cc21	inactive: 7.42%	–
CCc1nnc(NC(=O)c2nc(SC)ncc2Cl)s1	inactive: -0.436%	–
NC(=O)CSc1nc2c(oc3ccccc32)c(=O)n1Cc1ccccc1	inactive: 0.347%	–
CCSc1oc(-c2cccs2)nc1S(=O)(=O)c1ccc(Br)cc1	inactive: 2.26%	–
Cc1ccccc1C(=O)Nc1c(C(=O)Nc2cccc(F)c2)oc2ccccc12	inactive: 0.633%	–
CCOC(=O)c1c(-c2ccccc2)oc2ccc(N(C(C)=O)S(=O)(=O)c3ccccc3)cc12	inactive: 5.87%	–
O=C(NCc1ccc2c(c1)OCO2)c1ccc2c(c1)N(Cc1ccccc1F)C(=O)c1ccccc1S2=O (stereo unspecified)	inactive: 1.88%	–
